Experimental data: the supplement of paper PMC8728848
Some of the results follow.

Key:
Experiment in all cases: glycan array binding signal (z-score within array); higher = stronger binding
Details in all cases: glycan notation: IUPAC condensed, linker removed
[1] = target: Fuc(a1-2)Gal
Outline: (§1)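 Columns mapping to the same glycan were averaged after glycan names were converted to IUPAC-condensed notation. The data come from 3228 arrays in the Consortium for Functional Glycomics database, limited to those with an available protein sequence. Binding is reported as a within-array Z-score averaged across arrays of one protein sequence and across linkers.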

[2] = target: Fuc(a1-2)Gal(b1-3)GalNAc
Outline: as §1

[3] = target: Fuc(a1-2)Gal(b1-3)GalNAc(a1-3)[Fuc(a1-2)]Gal(b1-4)Glc
Outline: as §1

[4] = target: Fuc(a1-2)Gal(b1-3)GalNAc(a1-3)[Fuc(a1-2)]Gal(b1-4)GlcNAc
Outline: as §1

[5] = target: Fuc(a1-2)Gal(b1-3)GalNAc(b1-3)Gal
Outline: as §1

[6] = target: Fuc(a1-2)Gal(b1-3)GalNAc(b1-3)Gal(a1-4)Gal(b1-4)Glc
Outline: as §1

[7] = target: Fuc(a1-2)Gal(b1-3)GalNAc(b1-4)[Neu5Ac(a2-3)]Gal(b1-4)Glc
Outline: as §1

[8] = target: Fuc(a1-2)Gal(b1-3)GlcNAc
Outline: as §1

[9] = target: Fuc(a1-2)Gal(b1-3)GlcNAc(b1-2)Man(a1-3)[Fuc(a1-2)Gal(b1-3)GlcNAc(b1-2)Man(a1-6)]Man(b1-4)GlcNAc(b1-4)GlcNAc
Outline: as §1

[10] = target: Fuc(a1-2)Gal(b1-3)GlcNAc(b1-2)Man(a1-3)[Fuc(a1-2)Gal(b1-3)GlcNAc(b1-2)Man(a1-6)]Man(b1-4)GlcNAc(b1-4)[Fuc(a1-6)]GlcNAc
Outline: as §1

[11] = target: Fuc(a1-2)Gal(b1-3)GlcNAc(b1-3)Gal(b1-4)Glc
Outline: as §1

[12] = target: Fuc(a1-2)Gal(b1-3)GlcNAc(b1-3)GalNAc
Outline: as §1

[13] = target: Fuc(a1-2)Gal(b1-3)GlcNAc(b1-3)[Fuc(a1-2)Gal(b1-3)GlcNAc(b1-6)]GalNAc
Outline: as §1

[14] = target: Fuc(a1-2)Gal(b1-3)GlcNAc(b1-3)[Gal(b1-4)GlcNAc(b1-6)]Gal(b1-4)Glc
Outline: as §1

[15] = target: Fuc(a1-2)Gal(b1-3)GlcNAc(b1-3)[Neu5Ac(a2-6)Gal(b1-4)GlcNAc(b1-6)]Gal(b1-4)Glc
Outline: as §1

[16] = target: Fuc(a1-2)Gal(b1-3)GlcNAc6S
Outline: as §1

[17] = target: Fuc(a1-2)Gal(b1-3)[Fuc(a1-4)]GlcNAc
Outline: as §1

[18] = target: Fuc(a1-2)Gal(b1-3)[Fuc(a1-4)]GlcNAc(b1-2)Man(a1-3)[Fuc(a1-2)Gal(b1-3)[Fuc(a1-4)]GlcNAc(b1-2)Man(a1-3)]Man(b1-4)GlcNAc(b1-4)GlcNAc
Outline: as §1

[19] = target: Fuc(a1-2)Gal(b1-3)[Fuc(a1-4)]GlcNAc(b1-2)Man(a1-3)[Fuc(a1-2)Gal(b1-3)[Fuc(a1-4)]GlcNAc(b1-2)Man(a1-6)]Man(b1-4)GlcNAc(b1-4)[Fuc(a1-6)]GlcNAc(b1-4)[Fuc(a1-6)]GlcNAc
Outline: as §1

[20] = target: Fuc(a1-2)Gal(b1-3)[Fuc(a1-4)]GlcNAc(b1-3)[Fuc(a1-3)[Gal(b1-4)]GlcNAc(b1-6)]Gal(b1-4)Glc
Outline: as §1

[21] = target: Fuc(a1-2)Gal(b1-3)[Fuc(a1-4)]GlcNAc(b1-3)[Gal(b1-4)GlcNAc(b1-6)]Gal(b1-4)Glc
Outline: as §1

[22] = target: Fuc(a1-2)Gal(b1-4)Glc
Outline: as §1

[23] = target: Fuc(a1-2)Gal(b1-4)Glc6S
Outline: as §1

[24] = target: Fuc(a1-2)Gal(b1-4)GlcNAc
Outline: as §1

[25] = target: Fuc(a1-2)Gal(b1-4)GlcNAc(b1-2)Man
Outline: as §1

[26] = target: Fuc(a1-2)Gal(b1-4)GlcNAc(b1-2)Man(a1-3)[Fuc(a1-2)Gal(b1-4)GlcNAc(b1-2)Man(a1-6)]Man(b1-4)GlcNAc(b1-4)GlcNAc
Outline: as §1

[27] = target: Fuc(a1-2)Gal(b1-4)GlcNAc(b1-2)Man(a1-3)[Fuc(a1-2)Gal(b1-4)GlcNAc(b1-2)Man(a1-6)]Man(b1-4)GlcNAc(b1-4)[Fuc(a1-6)]GlcNAc
Outline: as §1

[28] = target: Fuc(a1-2)Gal(b1-4)GlcNAc(b1-2)[Fuc(a1-2)Gal(b1-4)GlcNAc(b1-4)]Man(a1-3)[Fuc(a1-2)Gal(b1-4)GlcNAc(b1-2)Man(a1-6)]Man(b1-4)GlcNAc(b1-4)GlcNAc
Outline: as §1

[29] = target: Fuc(a1-2)Gal(b1-4)GlcNAc(b1-3)Gal(b1-4)GlcNAc
Outline: as §1

[30] = target: Fuc(a1-2)Gal(b1-4)GlcNAc(b1-3)Gal(b1-4)GlcNAc(b1-2)Man(a1-3)[Fuc(a1-2)Gal(b1-4)GlcNAc(b1-3)Gal(b1-4)GlcNAc(b1-2)Man(a1-6)]Man(b1-4)GlcNAc(b1-4)GlcNAc
Outline: as §1

B1: Blon2468mut (Bifidobacterium longum) (protein)
chain: MTFIKQMMPRYVASMTAGIVAAAMAATCAFAPVANADAVSPTQETIQSTGRHFMVYYRAWRDVTMKGVNTDLPDDNWISMYDIPYGVDVVNIFSYVPSGQEEQAQPFYDKLKSDYAPYLHSRGIKLVRGIDYTGVAVNGFRTFMKEQNKTESEATEADYDAYAKQVIDKYMISVGLDGLDIDMQAHPNDADVKISDNVIRALSKHIGPKSAKPDTTMFLYDTNGSYLNPFKNVAECFDYVAYQQYGSSSDRTARAAADYQPYIGNEFVPGLTFPEEGDMNNRWYDATEPYEESHFYQVASYVREHNLGGMFVYALDRDGRNYDEDLRRIVPSNLLWTKTAIAESEGMALDTAKTAANHYLDRMSLRQVIDDNAASADKARDMVGKAANLYETNKAVLGGDYGEGFSNTYDPTLEAGLLGIDISVLQQQIDKSSEIIGADTAESDAKTALRMARDAAIDGLTGKIYTADQVSAWSQALKAALDATVPVPTPDSTDQNGNRDKVTNHKVQGQPKQLSATGISTDIIVAVGVTLAIAGVALSLSRKLS
glycan array binding signal (z-score) [1]: -0.059
glycan array binding signal (z-score) [2]: -0.061
glycan array binding signal (z-score) [3]: -0.098
glycan array binding signal (z-score) [4]: -0.05
glycan array binding signal (z-score) [5]: -0.063
glycan array binding signal (z-score) [6]: -0.073
glycan array binding signal (z-score) [7]: -0.049
glycan array binding signal (z-score) [8]: -0.046
glycan array binding signal (z-score) [9]: -0.036
glycan array binding signal (z-score) [10]: -0.026
glycan array binding signal (z-score) [11]: -0.083
glycan array binding signal (z-score) [12]: -0.084
glycan array binding signal (z-score) [13]: -0.065
glycan array binding signal (z-score) [14]: -0.084
glycan array binding signal (z-score) [15]: -0.067
glycan array binding signal (z-score) [16]: -0.052
glycan array binding signal (z-score) [17]: -0.055
glycan array binding signal (z-score) [18]: -0.053
glycan array binding signal (z-score) [19]: -0.074
glycan array binding signal (z-score) [20]: -0.099
glycan array binding signal (z-score) [21]: -0.071
glycan array binding signal (z-score) [22]: -0.043
glycan array binding signal (z-score) [23]: -0.041
glycan array binding signal (z-score) [24]: -0.053
glycan array binding signal (z-score) [25]: -0.079
glycan array binding signal (z-score) [26]: -0.068
glycan array binding signal (z-score) [27]: -0.089
glycan array binding signal (z-score) [28]: -0.045
glycan array binding signal (z-score) [29]: -0.064
glycan array binding signal (z-score) [30]: 0.003
